# Experimental data from the supplement of paper PMC8728848.
# The other results are listed elsewhere or left out.
# B1: Epa1-NP (Candida glabrata), Q6VBJ0 (protein)
# chain: MILNPALFLNKCVCIYTTLILLLLTNGGYATSSNDISLASKDPTTFPLGCSPDITTPKKGLSMELYSYDFRKKGSYPCWDAAYLDPNYPRTGYKSHRLLAKVDGVTGNINFYYHATKGCTPQLGHLPASYNYPKPLTMTNFTMLLYGYFRPKVTGFHTFTISADDLLFVNFGAGNAFDCCRRDSSADHFGNYQAYAIWGSKTAKDELTVHLDAGVYYPIRLFYNNREYDGALSFTFKTESNENTVSDFSEYFFSLDDTEEGCPGLISYDSSCASVKTSKIIGIDYHTETPNENLVPITKTIYHLGIPCTGTTTTPLCGSGFYDPLANKCVTINTSSTSSVTKTTSHTTSKEVSFHSSISSQKTLIPKSIPSPYGPIKSQSIPTEMETSSEISSSEYAFSDVISTPSHSPYTKKHSSLNSSSYTSTVIHSLTSYSISQGIFSTSLSEQNITSKSSTDKFSTATSMSNNITQSSIIISQFSTNNENYTTTSMHTSSDKISTETLNNSISTTTSILFSNSSTILKNNTTIISSDKDTHYHPVNPTIVCSTNKTEIICASITQPSISNSNNHWSSSVLKFNSTTVRSTLPSSAGSNETSINVPFSSSTESNTSTSSTSTSNSKMVRSTLPSSAGSNETSISVPFSSSTESNTSTSSTSTSNSKMVRSTLPSSAGSNETSINVPFSSSTESNTSTSSTSTSNSKTVRSTPFSSAGIIMTSLSQRNNKSASSYASSNSKCYNTADSCRKVHSTPSYLLTSSYTSEGVDYDCSLVSTKLKINDTNCVNNKHTTKSCLKTSVTTTIPTLEIKTARKSSSNTIGLHSYPTSSPNKSISSAPIIGYISSFKTIKTASPSYQTSDLTTITTITSLNNPGSTAVENTHESNDKSRKTSSNDISSKHSVIKETKDAVESSNKSHQTNTLKCSSIIIASSSHNSYESLGGTTLTLTLSKVYSPQNNDTLPFLEISEVNPSRTVLPESSKMMQYLTSTEERNKTARNTIATNIVSISTFHFEGEGNAIRMGYTQLLLMLIGIIVMNIGT
# Experiments:
# Assay in all cases: glycan array binding signal (z-score within array); higher = stronger binding
# Details in all cases: glycan notation: IUPAC condensed, linker removed
# [1] = target: Fuc(a1-2)Gal(b1-4)[Fuc(a1-3)]GlcNAc(b1-2)[Fuc(a1-2)Gal(b1-4)[Fuc(a1-3)]GlcNAc(b1-4)]Man(a1-3)[Fuc(a1-2)Gal(b1-4)[Fuc(a1-3)]GlcNAc(b1-2)Man(a1-6)]Man(b1-4)GlcNAc(b1-4)GlcNAc
# In short: (§1)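 The Consortium for Functional Glycomics database supplied 3228 glycan arrays, of which those lacking an available protein sequence were dropped. The binding signal, a within-array Z-score, was averaged across arrays of the same protein sequence and across linkers. Negative scores can be read as non-binding.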
# [2] = target: Fuc(a1-2)Gal(b1-4)[Fuc(a1-3)]GlcNAc(b1-3)Gal(b1-4)[Fuc(a1-3)]GlcNAc
# In short: as §1
# [3] = target: Fuc(a1-2)Gal(b1-4)[Fuc(a1-3)]GlcNAc(b1-3)Gal(b1-4)[Fuc(a1-3)]GlcNAc(b1-3)Gal(b1-4)[Fuc(a1-3)]GlcNAc
# In short: as §1
# [4] = target: Fuc(a1-2)Gal(b1-4)[Fuc(a1-3)]GlcNAc(b1-3)GalNAc
# In short: as §1
# [5] = target: Fuc(a1-2)Gal(b1-4)[Fuc(a1-3)]GlcNAc(b1-3)[Neu5Ac(a2-6)Gal(b1-4)GlcNAc(b1-6)]Gal(b1-4)Glc
# In short: as §1
# [6] = target: Fuc(a1-2)Gal3S(b1-4)GlcNAc
# In short: as §1
# [7] = target: Fuc(a1-2)Gal6S(b1-3)GlcNAc
# In short: as §1
# [8] = target: Fuc(a1-2)Gal6S(b1-3)GlcNAc6S
# In short: as §1
# Fuc(a1-2)Gal6S(b1-4)Glc = target: Fuc(a1-2)Gal6S(b1-4)Glc
# In short: as §1
# [9] = target: Fuc(a1-2)Gal6S(b1-4)Glc6S
# In short: as §1
# [10] = target: Fuc(a1-2)Gal6S(b1-4)GlcNAc
# In short: as §1
# Fuc(a1-2)GlcNAc = target: Fuc(a1-2)GlcNAc
# In short: as §1
# Fuc(a1-2)[Gal(a1-3)]Gal = target: Fuc(a1-2)[Gal(a1-3)]Gal
# In short: as §1
# [11] = target: Fuc(a1-2)[Gal(a1-3)]Gal(b1-3)GalNAc
# In short: as §1
# [12] = target: Fuc(a1-2)[Gal(a1-3)]Gal(b1-3)GalNAc(b1-3)Gal(a1-4)Gal(b1-4)Glc
# In short: as §1
# [13] = target: Fuc(a1-2)[Gal(a1-3)]Gal(b1-3)GlcNAc
# In short: as §1
# [14] = target: Fuc(a1-2)[Gal(a1-3)]Gal(b1-3)GlcNAc(b1-2)Man(a1-3)[Fuc(a1-2)[Gal(a1-3)]Gal(b1-3)GlcNAc(b1-2)Man(a1-6)]Man(b1-4)GlcNAc(b1-4)GlcNAc
# In short: as §1
# [15] = target: Fuc(a1-2)[Gal(a1-3)]Gal(b1-3)GlcNAc(b1-2)Man(a1-3)[Fuc(a1-2)[Gal(a1-3)]Gal(b1-3)GlcNAc(b1-2)Man(a1-6)]Man(b1-4)GlcNAc(b1-4)[Fuc(a1-6)]GlcNAc
# In short: as §1
# [16] = target: Fuc(a1-2)[Gal(a1-3)]Gal(b1-3)GlcNAc(b1-3)GalNAc
# In short: as §1
# [17] = target: Fuc(a1-2)[Gal(a1-3)]Gal(b1-3)GlcNAc(b1-6)GalNAc
# In short: as §1
# [18] = target: Fuc(a1-2)[Gal(a1-3)]Gal(b1-4)Glc
# In short: as §1
# [19] = target: Fuc(a1-2)[Gal(a1-3)]Gal(b1-4)GlcNAc
# In short: as §1
binder,measurement,setting,value
B1,glycan array binding signal (z-score),[1],-0.138
same,glycan array binding signal (z-score),[2],-0.292
same,glycan array binding signal (z-score),[3],-0.283
same,glycan array binding signal (z-score),[4],0.099
same,glycan array binding signal (z-score),[5],-0.277
same,glycan array binding signal (z-score),[6],-0.26
same,glycan array binding signal (z-score),[7],-0.29
same,glycan array binding signal (z-score),[8],-0.253
same,glycan array binding signal (z-score),Fuc(a1-2)Gal6S(b1-4)Glc,-0.318
same,glycan array binding signal (z-score),[9],-0.297
same,glycan array binding signal (z-score),[10],-0.179
same,glycan array binding signal (z-score),Fuc(a1-2)GlcNAc,-0.542
same,glycan array binding signal (z-score),Fuc(a1-2)[Gal(a1-3)]Gal,-0.216
same,glycan array binding signal (z-score),[11],-0.251
same,glycan array binding signal (z-score),[12],-0.295
same,glycan array binding signal (z-score),[13],-0.287
same,glycan array binding signal (z-score),[14],-0.293
same,glycan array binding signal (z-score),[15],-0.281
same,glycan array binding signal (z-score),[16],-0.275
same,glycan array binding signal (z-score),[17],-0.298
same,glycan array binding signal (z-score),[18],-0.332
same,glycan array binding signal (z-score),[19],-0.241
